Laboratory results published in article PMC4336329 (PLoS ONE, 2015).
Screen size: about 310,000 compounds; about 2,200 (0.71%) showed an effect of 50% or more. Effects have a minus sign here. The list shows a part of the results.

Each compound was assayed against human ether-à-go-go-related gene (hERG) potassium channel (human, UniProt Q12809) (assay: primary screen, population patch clamp on CHO cells stably expressing hERG).
Chain of human ether-à-go-go-related gene (hERG) potassium channel (Q12809 whole entry, looked up): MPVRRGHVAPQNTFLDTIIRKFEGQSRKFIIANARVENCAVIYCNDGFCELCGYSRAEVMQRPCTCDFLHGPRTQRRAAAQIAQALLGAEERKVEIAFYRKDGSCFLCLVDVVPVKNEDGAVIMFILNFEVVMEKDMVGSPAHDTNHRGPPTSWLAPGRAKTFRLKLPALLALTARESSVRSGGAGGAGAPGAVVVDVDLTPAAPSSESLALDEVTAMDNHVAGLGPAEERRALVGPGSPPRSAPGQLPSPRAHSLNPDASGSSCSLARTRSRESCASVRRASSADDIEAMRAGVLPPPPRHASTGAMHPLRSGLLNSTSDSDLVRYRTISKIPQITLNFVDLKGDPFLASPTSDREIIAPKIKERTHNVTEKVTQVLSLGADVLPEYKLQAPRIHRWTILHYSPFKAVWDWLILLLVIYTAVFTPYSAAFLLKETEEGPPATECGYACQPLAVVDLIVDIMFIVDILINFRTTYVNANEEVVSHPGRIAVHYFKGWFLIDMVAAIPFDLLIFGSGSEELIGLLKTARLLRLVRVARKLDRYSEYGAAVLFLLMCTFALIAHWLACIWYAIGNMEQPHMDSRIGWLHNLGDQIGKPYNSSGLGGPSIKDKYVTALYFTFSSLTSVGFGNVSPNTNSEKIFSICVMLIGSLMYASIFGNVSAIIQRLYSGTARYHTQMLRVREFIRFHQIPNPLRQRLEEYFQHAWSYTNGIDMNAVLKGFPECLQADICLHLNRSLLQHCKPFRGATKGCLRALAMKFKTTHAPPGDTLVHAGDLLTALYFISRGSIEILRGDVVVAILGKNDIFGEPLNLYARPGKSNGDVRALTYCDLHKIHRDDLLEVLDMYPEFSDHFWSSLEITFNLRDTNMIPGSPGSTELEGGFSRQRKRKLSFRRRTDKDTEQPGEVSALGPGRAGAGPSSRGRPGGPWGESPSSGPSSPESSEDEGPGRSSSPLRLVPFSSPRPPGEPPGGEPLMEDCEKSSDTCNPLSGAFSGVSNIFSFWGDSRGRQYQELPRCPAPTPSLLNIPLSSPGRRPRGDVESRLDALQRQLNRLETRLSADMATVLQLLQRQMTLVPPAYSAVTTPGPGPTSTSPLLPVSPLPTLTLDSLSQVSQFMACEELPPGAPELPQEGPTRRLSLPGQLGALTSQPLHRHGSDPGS
With `Cc1ccc(NC2CCCN(C(=O)c3cn(C)c4ccccc34)C2)cc1C` (stereo not drawn) the “hERG current change (%, negative = inhibition) at 1uM” value was 4.12%.
For `O=C(CSCCO)Nc1nccs1`, the “hERG current change (%, negative = inhibition) at 1uM” value was 3.75%.
With `O=C(c1ccncc1)N1CCN(C(=O)c2ccncc2)CC1` the “hERG current change (%, negative = inhibition) at 1uM” value was 14.6%.
For `O=C(COc1ncnc2ccccc12)Nc1ccc(Cl)c([N+](=O)[O-])c1`, the “hERG current change (%, negative = inhibition) at 1uM” value was 9.12%.
In the case of `Cc1cccc(NC(=O)NNC(=O)c2sccc2-n2cccc2)c1`, the “hERG current change (%, negative = inhibition) at 1uM” value is reported as 16.5%.
With `COc1ccccc1CNS(=O)(=O)c1ccc2c(c1)CC(=O)N2C` the “hERG current change (%, negative = inhibition) at 1uM” value was 10.8%.
For `COc1cc(Br)cc(CN2CCN(c3ncccn3)CC2)c1O`, the “hERG current change (%, negative = inhibition) at 1uM” value was 11.5%.
For `CCCCC(=O)Nc1cc(OC)c(NC(=S)NC)cc1OC`, the “hERG current change (%, negative = inhibition) at 1uM” value was 19.2%.
For `Cc1cc(NC(=O)COC(=O)CCNS(=O)(=O)c2c(Cl)cccc2Cl)no1`, the “hERG current change (%, negative = inhibition) at 1uM” value was 4.64%.
With `CC(C)Oc1ccc(CCC(=O)NNC(=S)NCc2ccccc2)cc1` the “hERG current change (%, negative = inhibition) at 1uM” value was 8.49%.
For `CC(=O)C(Sc1nnnn1-c1ccccc1)C(C)=O`, the “hERG current change (%, negative = inhibition) at 1uM” value was 10.1%.
`Cn1c(=O)c2sccc2n(Cc2cccc(Br)c2)c1=O` was tested, and the “hERG current change (%, negative = inhibition) at 1uM” value was 6.28%.
For `CCN(CC)CCNC(=O)c1ccc(NC(=O)Cc2ccsc2)cc1`, the “hERG current change (%, negative = inhibition) at 1uM” value was 21.2%.
`O=C(N1CCOCC1)N1c2ccccc2CC(N2CCOCC2)c2ccccc21` (stereo not drawn) was tested, and the “hERG current change (%, negative = inhibition) at 1uM” value was 17%.
With `CC1CCN(C(=O)C(C)Cl)CC1` (stereo not drawn) the “hERG current change (%, negative = inhibition) at 1uM” value was 21.7%.
For `O=C1c2cccc3cccc(c23)C(=O)N1Cc1ccccc1`, the “hERG current change (%, negative = inhibition) at 1uM” value was 12%.
In the case of `Nc1cc2c(cc1C(=O)c1ccc(Cl)cc1)OCCO2`, the “hERG current change (%, negative = inhibition) at 1uM” value is reported as 9.8%.
With `CC(C)(C)N(NC(=O)OCc1ccccc1)C(=O)c1ccccc1Cl` the “hERG current change (%, negative = inhibition) at 1uM” value was -0.0463%.
`O=S(=O)(c1ccc(NC2CCCCC2)cc1)N1CCOCC1` was tested, and the “hERG current change (%, negative = inhibition) at 1uM” value was 11.3%.
`O=C(Nc1ccc(S(=O)(=O)N2CCOCC2)cc1)c1nn(-c2ccc(F)cc2)ccc1=O` was tested, and the “hERG current change (%, negative = inhibition) at 1uM” value was -6.24%.
In the case of `Cc1ccc(SCCNC(=S)Nc2ccc(C)cc2C)cc1`, the “hERG current change (%, negative = inhibition) at 1uM” value is reported as 13.4%.
In the case of `Cc1cccc(C)c1NC(=O)CN(C)C(=O)c1cccc(-n2cccc2)c1`, the “hERG current change (%, negative = inhibition) at 1uM” value is reported as 14.9%.
In the case of `COc1ccc(-n2c(C)nc3cc(C(=O)NCCN4CCOCC4)ccc32)cc1`, the “hERG current change (%, negative = inhibition) at 1uM” value is reported as 7.27%.
`O=C(/C=C/Sc1ccccc1)c1ccccc1` was tested, and the “hERG current change (%, negative = inhibition) at 1uM” value was 15.5%.
`CC(=O)c1ccc(N2Cc3ccccc3/C2=N\C(=O)Nc2ccccc2)cc1` was tested, and the “hERG current change (%, negative = inhibition) at 1uM” value was 6.5%.
In the case of `COCCNc1nnc(Cc2ccc(Cl)cc2)c(=O)[nH]1`, the “hERG current change (%, negative = inhibition) at 1uM” value is reported as 12%.
For `O=C(NCc1ccc2c(c1)OCO2)c1ccc(C2SCC(=O)N2Cc2ccco2)cc1` (stereo not drawn), the “hERG current change (%, negative = inhibition) at 1uM” value was -2.52%.
In the case of `OC(CCc1ccncc1)c1ccccc1` (stereo not drawn), the “hERG current change (%, negative = inhibition) at 1uM” value is reported as 14.1%.
`Cc1ccc(C(=O)N/C(=C\c2cccc([N+](=O)[O-])c2)C(=O)NC(Cc2ccccc2)C(=O)O)cc1` (stereo not drawn) was tested, and the “hERG current change (%, negative = inhibition) at 1uM” value was 13.7%.
`O=C(COC(=O)CCNS(=O)(=O)c1ccccc1)NNC(=O)c1ccccc1` was tested, and the “hERG current change (%, negative = inhibition) at 1uM” value was 19.8%.
In the case of `Cc1nc(SCC(=O)c2c(N)n(C3CC3)c(=O)[nH]c2=O)[nH]c(=O)c1CCO`, the “hERG current change (%, negative = inhibition) at 1uM” value is reported as 18.9%.
With `CCOC(=O)N1CCC(NC(=O)CS(=O)(=O)Cc2nc(-c3ccc(C)cc3)oc2C)CC1` the “hERG current change (%, negative = inhibition) at 1uM” value was -1.25%.
With `Cc1ccc(C(=O)CSc2nnc(-c3c[nH]c4ccccc34)o2)cc1` the “hERG current change (%, negative = inhibition) at 1uM” value was 14.5%.
For `Cc1cc(C)cc(N(C(=O)c2cc3ccccc3oc2=O)C2C=CS(=O)(=O)C2)c1` (stereo not drawn), the “hERG current change (%, negative = inhibition) at 1uM” value was -6.82%.
`CCNS(=O)(=O)c1ccc(CCC(=O)N2CCC(C)CC2)cc1` was tested, and the “hERG current change (%, negative = inhibition) at 1uM” value was 8.91%.
With `COC(=O)C1=C(C(=O)OC)SC2(S1)C(C(=O)OC)=C(C(=O)OC)SC1=C2c2cc(C)ccc2NC1(C)C` the “hERG current change (%, negative = inhibition) at 1uM” value was 11%.
In the case of `COc1ccc(OC)c(/C=N/NC(=O)CSc2cc(C)nc3c(OC)cccc23)c1`, the “hERG current change (%, negative = inhibition) at 1uM” value is reported as 10.1%.
`O=C(c1ccc2c(c1)OCO2)N1CCN(S(=O)(=O)c2ccc(Cl)cc2)CC1` was tested, and the “hERG current change (%, negative = inhibition) at 1uM” value was 7.66%.
With `CN(C)c1c2ccccc2nc2c(F)c(F)c(F)c(F)c12` the “hERG current change (%, negative = inhibition) at 1uM” value was 15.6%.
In the case of `Cc1ccc2[nH]cc(CCNC(=O)c3ccco3)c2c1`, the “hERG current change (%, negative = inhibition) at 1uM” value is reported as 12.3%.
In the case of `O=C(O)c1ccc(CSc2nc(-c3ccc(Cl)cc3)cc(C(F)(F)F)n2)cc1`, the “hERG current change (%, negative = inhibition) at 1uM” value is reported as 16%.
For `COc1ccc(OC)c(CNC(=O)C2CCN(S(C)(=O)=O)CC2)c1`, the “hERG current change (%, negative = inhibition) at 1uM” value was 9.28%.
`CN1CCN(c2ccc([N+](=O)[O-])c3no[n+]([O-])c23)CC1` was tested, and the “hERG current change (%, negative = inhibition) at 1uM” value was 0.869%.
In the case of `COc1cccc(NC(=O)CN(C)C(=O)CC(C)c2ccccc2)c1` (stereo not drawn), the “hERG current change (%, negative = inhibition) at 1uM” value is reported as 15.7%.
`O=C(/C=C/c1ccc(Cl)cc1Cl)NC(=S)Nc1ccccn1` was tested, and the “hERG current change (%, negative = inhibition) at 1uM” value was 11.1%.
With `Cc1c(Cl)cccc1NC(=O)CNC(=O)c1cn(-c2ccccc2)nc1-c1cccnc1` the “hERG current change (%, negative = inhibition) at 1uM” value was 3.8%.
For `Cc1ccccc1NS(=O)(=O)c1ccc(NC(=O)c2ccco2)cc1`, the “hERG current change (%, negative = inhibition) at 1uM” value was 13.4%.
With `Cc1ccc(S(=O)(=O)Nc2ncc(C(F)(F)F)cc2Cl)cc1` the “hERG current change (%, negative = inhibition) at 1uM” value was 18.1%.
`CSc1ccc(C(=S)N2CCN(CCO)CC2)cc1` was tested, and the “hERG current change (%, negative = inhibition) at 1uM” value was 14.1%.
In the case of `CNc1nc(Sc2ccc(C)cc2)cc(C(F)(F)F)n1`, the “hERG current change (%, negative = inhibition) at 1uM” value is reported as 12.9%.
`Cc1cc(NCCN2CCOCC2)n2c(nc3ccccc32)c1C#N` was tested, and the “hERG current change (%, negative = inhibition) at 1uM” value was 5.51%.
`CCOC(=O)c1ccc(CNC(=O)CSc2nnc(-c3ccncc3)o2)cc1` was tested, and the “hERG current change (%, negative = inhibition) at 1uM” value was 10.4%.
`Cn1c(O)c(/C=N/N2CCOCC2)c(=O)n(C)c1=S` was tested, and the “hERG current change (%, negative = inhibition) at 1uM” value was 7.31%.
For `Cn1c(=O)[nH]c(=O)c2c1[nH]c(=S)n2Cc1ccc(Cl)cc1`, the “hERG current change (%, negative = inhibition) at 1uM” value was 8.17%.
For `CCOc1ccc(NC2c3ccccc3C(=O)N2c2ccc(Cl)cn2)cc1` (stereo not drawn), the “hERG current change (%, negative = inhibition) at 1uM” value was 17.8%.
For `CC(=O)N1CCc2c(sc(NC(=O)C3COc4ccccc4O3)c2C(N)=O)C1` (stereo not drawn), the “hERG current change (%, negative = inhibition) at 1uM” value was -5.19%.
For `Cc1cccc(C)c1NC(=O)CNC(=O)c1ccc(N2CCCC2)c([N+](=O)[O-])c1`, the “hERG current change (%, negative = inhibition) at 1uM” value was -2.53%.
